Results taken from US5478810A, “Peptide amides, processes for the preparation thereof and agents containing these as fibrin/thrombin clotting inhibitors” (Behringwerke Aktiengesellschaft, priority 1990, dated 1995).
Part of at least one peptide drawing is inferred or uncertain, most often the ends. No end group written: not given here.

Key:
Type in all cases: biochemical
[1] = tested on: fibrin/thrombin clotting of plasma; test: clotting time, Test mixture I: 100 μl of clot inhibitor, 25 μl of plasma, 25 μl of thrombin
[2] = tested on: fibrin/thrombin clotting of plasma; test: clotting time, Test mixture III: 20 μl of clot inhibitor with thrombin, 130 μl of plasma
[3] = tested on: fibrin/thrombin clotting of plasma; test: clotting time, Test mixture II: 50 μl of clot inhibitor, 100 μl of plasma, 50 μl of thrombin

Substance	Clotting time ([1]; clot inhibitor 0.125 mg/ml)	Clotting time ([1]; clot inhibitor 0.25 mg/ml)	Clotting time ([1]; clot inhibitor 0.5 mg/ml)	Clotting time ([1]; clot inhibitor 1 mg/ml)	Clotting time ([1]; clot inhibitor 2 mg/ml)	Clotting time ([2]; clot inhibitor 0.625 mg/ml)	Clotting time ([2]; clot inhibitor 1.25 mg/ml)	Clotting time ([2]; clot inhibitor 2.5 mg/ml)	Clotting time ([2]; clot inhibitor 5 mg/ml)	Clotting time ([2]; clot inhibitor 10 mg/ml)	Clotting time ([3]; clot inhibitor 0.125 mg/ml)	Clotting time ([3]; clot inhibitor 0.25 mg/ml)	Clotting time ([3]; clot inhibitor 0.5 mg/ml)	Clotting time ([3]; clot inhibitor 1 mg/ml)	Clotting time ([3]; clot inhibitor 2 mg/ml)	Clotting time ([1]; clot inhibitor 0.06 mg/ml)	Clotting time ([3]; clot inhibitor 0.06 mg/ml)
GLRPG-NH2 [GLRPG, reference compound]	24.1 s	24.1 s	25.0 s	25.0 s	25.0 s	18.4 s	18.4 s	18.4 s	18.4 s	18.4 s	21.2 s	20.3 s	21.2 s	21.2 s	21.2 s	–	–
GPRPA-NH2 [GPRPA, Gly--Pro--Arg--Pro--Ala--NH2]	51.6 s	148.5 s	300.5 s	535.0 s	635.9 s	18.4 s	25.0 s	76.3 s	272.9 s	999.9 s	19.3 s	19.3 s	25.9 s	83.9 s	448.7 s	24.1 s	19.3 s
GPRPAG-NH2 [GPRPAG, GPRPAG--NH2]	33.6 s	84.9 s	142.8 s	191.3 s	201.7 s	18.4 s	20.3 s	45.0 s	71.6 s	22.2 s	19.3 s	18.4 s	20.3 s	49.7 s	195.1 s	–	–
GPRPD-NH2 [GPRPD, GPRPD--NH2]	20.3 s	22.2 s	45.9 s	166.6 s	430.7 s	17.4 s	18.4 s	18.4 s	24.1 s	101.0 s	20.3 s	19.3 s	47.8 s	48.8 s	350.9 s	21.2 s	20.3 s
GPRPF-NH2 [GPRPF, GPRPF--NH2]	21.2 s	33.6 s	88.7 s	196.0 s	482.9 s	18.4 s	18.4 s	20.3 s	59.2 s	261.6 s	19.3 s	19.3 s	18.4 s	20.3 s	47.8 s	–	–
GPRPG-NH2 [GPRPG, GPRPG--NH2]	27.9 s	73.5 s	229.3 s	718.5 s	999.9 s	18.4 s	19.3 s	40.2 s	104.8 s	656.8 s	19.3 s	18.4 s	20.3 s	43.1 s	126.7 s	20.3 s	19.3 s
GPRPI-NH2 [GPRPI, GPRPI--NH2]	25.9 s	57.3 s	181.8 s	968.4 s	785.0 s	18.4 s	19.3 s	32.6 s	107.7 s	448.7 s	20.3 s	18.4 s	19.3 s	27.9 s	93.4 s	–	–
GPRPK-NH2 [GPRPK, GPRPK--NH2]	51.6 s	102.0 s	173.2 s	139.9 s	258.1 s	18.4 s	20.3 s	41.2 s	114.3 s	575.1 s	19.3 s	18.4 s	19.3 s	35.5 s	113.4 s	25.0 s	19.3 s
GPRPPP-NH2 [GPRPPP, GPRPPP--NH2]	28.8 s	76.3 s	201.7 s	498.1 s	592.2 s	18.4 s	20.3 s	35.5 s	85.8 s	43.1 s	19.3 s	19.3 s	–	61.1 s	316.7 s	21.2 s	20.3 s
GPRPPR-NH2 [GPRPPR, GPRPPR--NH2]	30.7 s	66.8 s	109.6 s	310.9 s	493.4 s	18.4 s	19.3 s	28.8 s	70.6 s	209.3 s	19.3 s	18.4 s	19.3 s	32.6 s	89.6 s	21.2 s	19.3 s
GPRPRP-NH2 [GPRPRP, GPRPRP--NH2]	32.6 s	79.2 s	205.5 s	617.8 s	574.1 s	18.4 s	18.4 s	28.8 s	77.3 s	323.3 s	19.3 s	18.4 s	19.3 s	36.4 s	106.7 s	21.2 s	19.3 s
GPRPS-NH2 [GPRPS, GPRPS--NH2]	23.1 s	41.2 s	83.3 s	114.3 s	115.3 s	–	–	–	–	–	19.3 s	18.4 s	18.4 s	25.0 s	77.3 s	20.3 s	20.3 s
GPRPV-NH2 [GPRPV, GPRPV--NH2]	32.6 s	83.0 s	148.5 s	225.5 s	174.2 s	18.4 s	20.3 s	43.1 s	109.6 s	69.7 s	19.3 s	18.4 s	20.3 s	43.1 s	168.4 s	–	–
GPRPW-NH2 [GPRPW, GPRPW--NH2]	26.9 s	70.6 s	190.3 s	726.1 s	879.1 s	18.4 s	18.4 s	19.3 s	38.3 s	155.2 s	19.3 s	19.3 s	19.3 s	25.0 s	85.8 s	20.3 s	20.3 s
